Here are results for two compounds from patent US20250332170A1, “VANDETANIB REDUCES INFLAMMATORY CYTOKINES AND AMELIORATES COVID-19” (Collaborations Pharmaceuticals, Inc., priority 2021, published 2025).

Like-named read-outs stand apart in the source and are kept apart here.

For series [1], the system named is SARS-CoV-2 (strain USA_WA1/2020). Briefly: microbe, parasite or virus in culture. The series is classed as cell-based.
Another series concerns Caco-2 cells. Briefly: Cytotoxicity in Caco-2 cells (CC50). Type of series: cell-based.

As for `CN1CCN(c2ccc(C(=O)Nc3n[nH]c4ccc(Cc5cc(F)cc(F)c5)cc34)c(NC3CCOCC3)c2)CC1` [Entrectinib], the EC90 (in general, the point of the concentration-response curve where the effect stands at 90%) in series [1] (Severe acute respiratory syndrome coronavirus 2, Caco-2 cells, strain USA_WA1/2020, read-out: EC90, SARS-CoV-2 in Caco-2) was above 3600 nM. Besides, the “Toxicity in Caco-2 cells” value in the series on Caco-2 cells is given as “toxic at the concentrations tested”.
In the case of `COc1cc2c(Nc3ccc(Br)cc3F)ncnc2cc1OCC1CCN(C)CC1` [Vandetanib], the EC90 in series [1] (Severe acute respiratory syndrome coronavirus 2, Caco-2, read-out: EC90, SARS-CoV-2 in Caco-2) was 2000 nM.
